In all, about 310,000 compounds went through this assay and about 14,000 (4.5%) showed an effect of 50% or more. The effect is printed as a negative number. Some of the results follow.
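Note: peak tail current of the secondary pulse compared with the same well before compound.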

This experiment deals with human ether-à-go-go-related gene (hERG) potassium channel (human, UniProt Q12809). Briefly: primary screen, population patch clamp on CHO cells stably expressing hERG.
Chain of human ether-à-go-go-related gene (hERG) potassium channel (Q12809 whole entry, looked up): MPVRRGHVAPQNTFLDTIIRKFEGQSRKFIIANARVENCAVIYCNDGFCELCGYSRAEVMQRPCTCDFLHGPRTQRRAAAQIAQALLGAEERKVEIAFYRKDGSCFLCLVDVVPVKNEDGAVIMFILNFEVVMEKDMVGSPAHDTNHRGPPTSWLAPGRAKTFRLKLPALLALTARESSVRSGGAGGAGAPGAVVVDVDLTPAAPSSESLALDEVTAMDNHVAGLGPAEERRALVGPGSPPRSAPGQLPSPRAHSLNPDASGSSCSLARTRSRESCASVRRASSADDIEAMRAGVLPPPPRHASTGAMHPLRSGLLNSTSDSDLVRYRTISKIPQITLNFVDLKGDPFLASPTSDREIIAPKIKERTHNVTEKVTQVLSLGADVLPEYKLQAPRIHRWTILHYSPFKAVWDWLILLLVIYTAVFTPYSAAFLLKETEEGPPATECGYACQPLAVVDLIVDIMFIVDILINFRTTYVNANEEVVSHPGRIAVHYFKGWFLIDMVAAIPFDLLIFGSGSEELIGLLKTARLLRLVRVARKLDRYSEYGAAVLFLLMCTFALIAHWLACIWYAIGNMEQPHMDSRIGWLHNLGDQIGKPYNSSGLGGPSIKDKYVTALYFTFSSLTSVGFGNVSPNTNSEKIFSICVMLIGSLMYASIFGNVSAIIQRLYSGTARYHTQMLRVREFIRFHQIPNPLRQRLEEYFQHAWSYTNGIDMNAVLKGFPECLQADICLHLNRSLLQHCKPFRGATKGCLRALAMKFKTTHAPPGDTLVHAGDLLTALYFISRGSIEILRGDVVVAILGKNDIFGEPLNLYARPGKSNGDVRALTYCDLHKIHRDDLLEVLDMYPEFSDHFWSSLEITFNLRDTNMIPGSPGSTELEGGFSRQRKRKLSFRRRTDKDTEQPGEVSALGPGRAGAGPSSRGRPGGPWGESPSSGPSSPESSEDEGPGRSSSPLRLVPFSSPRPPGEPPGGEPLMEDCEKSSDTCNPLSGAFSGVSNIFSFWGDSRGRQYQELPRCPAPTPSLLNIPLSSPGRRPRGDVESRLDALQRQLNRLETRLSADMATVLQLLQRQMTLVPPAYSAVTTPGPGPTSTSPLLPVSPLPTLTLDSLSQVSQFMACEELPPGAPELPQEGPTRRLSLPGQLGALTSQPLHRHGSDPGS
For `CCOc1cc(/C=C2\C(=O)N(Cc3ccco3)C(C)=C2C(=O)OC)ccc1O`, the “hERG current change (%, negative = inhibition) at 10uM” value is recorded as -28.9%.
The result for `COc1cc(C2NC(C(=O)O)Cc3c2[nH]c2ccccc32)cc(OC)c1OC` (stereo not shown) reads 11.4%.
The result for `CCc1ccc(CN2CCC(Oc3ccc(C(=O)N4CCCCC4)cc3)CC2)cc1` reads -78.4%; that for `COc1cccc(/C=N/N2CCN(c3ccncc3S(=O)(=O)N3CCCCC3)CC2)c1`, -9.67%.
The result for `CC(=O)c1c(OC(=O)c2ccco2)c2ccccc2n1C` reads 1.14%; that for `COC(=O)C1=C(c2ccc(S(C)(=O)=O)cc2)C[C@@H]2CC[C@H]1N2C(=O)NCCCOC(C)C`, 12.9%; that for `COc1ccc2c(c1)OCC1=C2CCC2(C)C(=O)CC=C12` (stereo not shown), 7.52%.
With `CCOC(=O)C(=NCC1CCCO1)NNc1cc(Cl)ccc1Cl` (stereo not shown), the “hERG current change (%, negative = inhibition) at 10uM” value was 3.08%.
The result for `CCC(C)(C)NC(=O)/C=C/c1cc(OC)c(OC)c(S(=O)(=O)N2CCc3ccccc32)c1` reads 4.99%; that for `CC(=O)Oc1ccc2nc(/C=C/c3ccc(C=O)cc3)oc(=O)c2c1`, 12.7%; that for `Cn1cccc1/C=N/n1c(-c2ccco2)n[nH]c1=S`, 18.5%.
As for `O=[N+]([O-])c1ccccc1S(=O)(=O)N1CCN(c2ccc(F)cc2)CC1`, the “hERG current change (%, negative = inhibition) at 10uM” value is recorded as -37.5%.
The result for `CN1CCC(OC(=O)Cc2ccc(Cl)cc2)CC1.Cl` reads -11%; that for `N#CCc1c(C#N)c(N)nc(N2CCN(S(=O)(=O)c3ccccc3F)CC2)c1C#N`, -9.75%.
The result for `CC(=O)c1ccc(NC(=O)CN2CCN(c3ccccc3)CC2)cc1.Cl` reads -13.6%; that for `COc1ccc(C(=O)CN2CCN(c3ncccn3)CC2)cc1.O=C(O)C(=O)O`, 5.13%.
Turning to `Cc1ccc(S(=O)(=O)N(CC(=O)NCc2ccncc2)Cc2ccccc2F)cc1`, the “hERG current change (%, negative = inhibition) at 10uM” value was -78.6%.
In the case of `O=C(CC1Sc2ncnn2C1=O)Nc1ccc(Cl)cc1` (stereo not shown), the “hERG current change (%, negative = inhibition) at 10uM” value stood at 6.43%.
Regarding `CC1CCCN(C/C(O)=C(\C#N)c2nc3ccccc3[nH]2)C1` (stereo not shown), the “hERG current change (%, negative = inhibition) at 10uM” value is recorded as -27.8%.
As for `Nc1c(Cl)ncnc1N1CCOCC1`, the figure is 6.38%; as for `COc1ccc(-c2nn(-c3ccccc3)cc2C(=O)NC2CCC(C)CC2)cc1` (stereo not shown), 19.9%; as for `Cc1ccc(S(=O)(=O)CCc2nnc(NC(=O)c3cnccn3)s2)cc1`, 8.7%.
For `CC1CCCCC1NC(=O)COC(=O)COc1ccccc1Cl` (stereo not shown), the “hERG current change (%, negative = inhibition) at 10uM” value was determined as 15.1%.
The result for `COc1ccc(N2CCN(C(=O)CCC(=O)N3CC(C)Oc4ccc(C)cc43)CC2)cc1` (stereo not shown) reads -41%.
The result for `O=C(c1cccc([N+](=O)[O-])c1)c1ccc2c(c1)C(=O)N(c1c[nH]c(=O)[nH]c1=O)C2=O` reads 13.4%.
For the compound `COc1cc(-c2nc(CN3CCN(CC(C)C)C(=O)[C@@H]3C)c(C)o2)ccc1F`, the “hERG current change (%, negative = inhibition) at 10uM” value is recorded as -14.2%.
As for `CCCCn1c(N)c(N(CC(C)C)C(=O)CCCSc2nncs2)c(=O)[nH]c1=O`, the figure is 7.91%.
The result for `O=C(Nc1sc2c(c1C(=O)N1CCOCC1)CCCCC2)c1cccnc1` reads 17%; that for `CC1CCCC(C)N1C(=O)COC(=O)Cc1c[nH]c2ccccc12` (stereo not shown), 7.87%; that for `CCOC(=O)CNC(=O)C1CCCc2c1[nH]c1ccc(Cl)cc21` (stereo not shown), -2.99%.
As for `COCCCNC(=O)CCCn1c(=O)c2ccccc2n(CC(=O)Nc2c(C)cccc2C)c1=O`, the figure is 11.3%; as for `CCN(CC(=O)NCc1ccc(Cl)cc1)C(=O)c1ccc(S(=O)(=O)N(C)C)cc1`, -33.2%; as for `COc1cc(=O)[nH]c(SC(C)C(=O)Nc2nc3c(s2)CCCC3)n1` (stereo not shown), 7.6%.
Consider `O=C(CCC1CCCC1)Nc1cc(C(F)(F)F)ccc1N1CCOCC1`, for which the “hERG current change (%, negative = inhibition) at 10uM” value is -13.7%.
The result for `C=CCn1c(O)c(C(CC)=NCCCO)c(=O)[nH]c1=O` reads 12%.
The result for `CCCn1c(-c2cccs2)nc2ccccc21` reads -26.6%; that for `CCn1c(=O)[nH]c2cc(C(=O)Nc3cc(C)cc(C)c3)ccc2c1=O`, 13.1%.
`COC(=O)[C@H](C)NC(=O)Nc1cc(OC)ccc1OC`: the “hERG current change (%, negative = inhibition) at 10uM” value is reported as -8.76%.
For `O=C1C2C3C=CC(C3)C2C(=O)N1Cc1ccc(CN2C(=O)C3C4C=CC(C4)C3C2=O)cc1` (stereo not shown), the “hERG current change (%, negative = inhibition) at 10uM” value is recorded as -7.36%.
For `O=[N+]([O-])c1cc(Cl)cc(/C=N\Nc2ccccn2)c1O`, the “hERG current change (%, negative = inhibition) at 10uM” value was 10.5%.
The result for `Cc1[nH]nc2c1C(c1ccc(F)cc1)C1=C(CC(C)(C)CC1=O)N2` (stereo not shown) reads 5.9%; that for `O=C(O)c1ccccc1C(=O)Nc1n[nH]c(=S)s1`, 20.2%.
On to `COc1ccc(OC)c(NC(=O)Nc2cccc(Cn3cccn3)c2)c1`, for which the “hERG current change (%, negative = inhibition) at 10uM” value is on record as -20.7%.

For the origin of these results see paper PMC4336329 (PLoS ONE, 2015).
